Source: PMC9911399, “Two distinct binding modes provide the RNA-binding protein RbFox with extraordinary sequence specificity”
Substitutions are numbered along the chain they refer to; changes in the protein carry UniProt numbers. This is one part of the list.

T1: RBFOX1 RRM RbFoxmut (Fox-RRM*) (Homo sapiens, UniProt Q9NWB1 109-208, R118D;E147R;N151S;E152T)
T1 sequence: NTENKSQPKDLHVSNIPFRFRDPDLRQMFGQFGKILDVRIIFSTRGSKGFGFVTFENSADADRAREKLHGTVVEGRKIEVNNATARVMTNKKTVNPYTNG

B1: UAGUUUA (DNA:RNA)
RNA: GGGAGACCGGAAUUCAGAUUGUCCUAGUUUAUUAAAUCCCGUCGUAGCCACCA
DNA 1: CAATCTGAATTCCGGTCTCCC
DNA 2: TGGTGGCTACGACGGGATT
B2: GGCUGGC (DNA:RNA)
RNA: B1 RNA with U25G, A26G, G27C, U29G, U30G, A31C
DNA 1: CAATCTGAATTCCGGTCTCCC
DNA 2: TGGTGGCTACGACGGGATT
B3: UUGCCUC (DNA:RNA)
RNA: B1 RNA with A26U, U28C, U29C, A31C
DNA 1: CAATCTGAATTCCGGTCTCCC
DNA 2: TGGTGGCTACGACGGGATT
B4: UGGACGU (DNA:RNA)
RNA: B1 RNA with A26G, U28A, U29C, U30G, A31U
DNA 1: CAATCTGAATTCCGGTCTCCC
DNA 2: TGGTGGCTACGACGGGATT
B5: AGUGCGC (DNA:RNA)
RNA: GGGAGACCGGAAUUCAGAUUGUCCAGUGCGCUUAAAUCCCGUCGUAGCCACCA
DNA 1: CAATCTGAATTCCGGTCTCCC
DNA 2: TGGTGGCTACGACGGGATT
B6: CAAUCGA (DNA:RNA)
RNA: B1 RNA with U25C, G27A, U29C, U30G
DNA 1: CAATCTGAATTCCGGTCTCCC
DNA 2: TGGTGGCTACGACGGGATT
B7: CGGGUUU (DNA:RNA)
RNA: B1 RNA with U25C, A26G, U28G, A31U
DNA 1: CAATCTGAATTCCGGTCTCCC
DNA 2: TGGTGGCTACGACGGGATT
B8: ACGUUUC (DNA:RNA)
RNA: B1 RNA with U25A, A26C, A31C
DNA 1: CAATCTGAATTCCGGTCTCCC
DNA 2: TGGTGGCTACGACGGGATT
B9: AGAGUGC (DNA:RNA)
RNA: B5 RNA with U27A, C29U
DNA 1: CAATCTGAATTCCGGTCTCCC
DNA 2: TGGTGGCTACGACGGGATT
B10: GGUGUGU (DNA:RNA)
RNA: B5 RNA with A25G, C29U, C31U
DNA 1: CAATCTGAATTCCGGTCTCCC
DNA 2: TGGTGGCTACGACGGGATT
B11: GUCGUGA (DNA:RNA)
RNA: B5 RNA with A25G, G26U, U27C, C29U, C31A
DNA 1: CAATCTGAATTCCGGTCTCCC
DNA 2: TGGTGGCTACGACGGGATT
B12: GGGCUUU (DNA:RNA)
RNA: B1 RNA with U25G, A26G, U28C, A31U
DNA 1: CAATCTGAATTCCGGTCTCCC
DNA 2: TGGTGGCTACGACGGGATT
B13: AGGAAAG (DNA:RNA)
RNA: B5 RNA with U27G, G28A, C29A, G30A, C31G
DNA 1: CAATCTGAATTCCGGTCTCCC
DNA 2: TGGTGGCTACGACGGGATT
B14: AAUUUAG (DNA:RNA)
RNA: B1 RNA with U25A, G27U, U30A, A31G
DNA 1: CAATCTGAATTCCGGTCTCCC
DNA 2: TGGTGGCTACGACGGGATT
B15: GGCGUCG (DNA:RNA)
RNA: B5 RNA with A25G, U27C, C29U, G30C, C31G
DNA 1: CAATCTGAATTCCGGTCTCCC
DNA 2: TGGTGGCTACGACGGGATT
B16: GAACCUG (DNA:RNA)
RNA: B1 RNA with U25G, G27A, U28C, U29C, A31G
DNA 1: CAATCTGAATTCCGGTCTCCC
DNA 2: TGGTGGCTACGACGGGATT
B17: UUCAACU (DNA:RNA)
RNA: B1 RNA with A26U, G27C, U28A, U29A, U30C, A31U
DNA 1: CAATCTGAATTCCGGTCTCCC
DNA 2: TGGTGGCTACGACGGGATT
B18: GUGCCAC (DNA:RNA)
RNA: B5 RNA with A25G, G26U, U27G, G28C, G30A
DNA 1: CAATCTGAATTCCGGTCTCCC
DNA 2: TGGTGGCTACGACGGGATT
B19: ACACGGA (DNA:RNA)
RNA: B5 RNA with G26C, U27A, G28C, C29G, C31A
DNA 1: CAATCTGAATTCCGGTCTCCC
DNA 2: TGGTGGCTACGACGGGATT
B20: UCUUUGC (DNA:RNA)
RNA: B5 RNA with A25U, G26C, G28U, C29U
DNA 1: CAATCTGAATTCCGGTCTCCC
DNA 2: TGGTGGCTACGACGGGATT
B21: ACACAUG (DNA:RNA)
RNA: B5 RNA with G26C, U27A, G28C, C29A, G30U, C31G
DNA 1: CAATCTGAATTCCGGTCTCCC
DNA 2: TGGTGGCTACGACGGGATT
B22: GGGUACU (DNA:RNA)
RNA: B1 RNA with U25G, A26G, U29A, U30C, A31U
DNA 1: CAATCTGAATTCCGGTCTCCC
DNA 2: TGGTGGCTACGACGGGATT
B23: CAUUGAG (DNA:RNA)
RNA: B1 RNA with U25C, G27U, U29G, U30A, A31G
DNA 1: CAATCTGAATTCCGGTCTCCC
DNA 2: TGGTGGCTACGACGGGATT
B24: UAGUCAA (DNA:RNA)
RNA: B1 RNA with U29C, U30A
DNA 1: CAATCTGAATTCCGGTCTCCC
DNA 2: TGGTGGCTACGACGGGATT
B25: CACAGCU (DNA:RNA)
RNA: B1 RNA with U25C, G27C, U28A, U29G, U30C, A31U
DNA 1: CAATCTGAATTCCGGTCTCCC
DNA 2: TGGTGGCTACGACGGGATT
B26: UUAAUAA (DNA:RNA)
RNA: B1 RNA with A26U, G27A, U28A, U30A
DNA 1: CAATCTGAATTCCGGTCTCCC
DNA 2: TGGTGGCTACGACGGGATT
B27: AAUGUUA (DNA:RNA)
RNA: B1 RNA with U25A, G27U, U28G
DNA 1: CAATCTGAATTCCGGTCTCCC
DNA 2: TGGTGGCTACGACGGGATT
B28: CCGUCAA (DNA:RNA)
RNA: B1 RNA with U25C, A26C, U29C, U30A
DNA 1: CAATCTGAATTCCGGTCTCCC
DNA 2: TGGTGGCTACGACGGGATT
B29: UAGUAGG (DNA:RNA)
RNA: B1 RNA with U29A, U30G, A31G
DNA 1: CAATCTGAATTCCGGTCTCCC
DNA 2: TGGTGGCTACGACGGGATT
B30: UGACUCG (DNA:RNA)
RNA: B1 RNA with A26G, G27A, U28C, U30C, A31G
DNA 1: CAATCTGAATTCCGGTCTCCC
DNA 2: TGGTGGCTACGACGGGATT
B31: CUGGACU (DNA:RNA)
RNA: B5 RNA with A25C, G26U, U27G, C29A, G30C, C31U
DNA 1: CAATCTGAATTCCGGTCTCCC
DNA 2: TGGTGGCTACGACGGGATT

molecular target: T1, RBFOX1 RRM RbFoxmut (Fox-RRM*); assay: EMSA; HiTS-Eq, 1 nM pool, 10 min; buffer printed only for the single-RNA assays: 10 mM Tris pH 7.5, 150 mM NaCl, 3.4 mM EDTA, 0.001% NP-40, 30 C; conditions: tags: His6 N-terminal (pET28a); label: 5' 32P
Method in brief: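 Purified wild-type or mutant RbFox RRM at increasing concentrations was equilibrated with 1 nM of 5′-radiolabelled RNA carrying 7 randomized nucleotides for 10 min in 50 µL. Unbound RNA was separated by 8% native PAGE and sequenced. Relative association constants came from read-count changes of each RNA species compared with the control reaction, normalised to the cognate motif.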

| Binder | binding signal |
| --- | --- |
| B1 | 0.136 KA relative to UGCAUGU |
| B2 | 0.106 KA relative to UGCAUGU |
| B3 | 0.072 KA relative to UGCAUGU |
| B4 | 0.147 KA relative to UGCAUGU |
| B5 | 0.112 KA relative to UGCAUGU |
| B6 | 0.0434 KA relative to UGCAUGU |
| B7 | 0.0926 KA relative to UGCAUGU |
| B8 | 0.0814 KA relative to UGCAUGU |
| B9 | 0.125 KA relative to UGCAUGU |
| B10 | 0.232 KA relative to UGCAUGU |
| B11 | 0.126 KA relative to UGCAUGU |
| B12 | 0.0637 KA relative to UGCAUGU |
| B13 | 0.151 KA relative to UGCAUGU |
| B14 | 0.107 KA relative to UGCAUGU |
| B15 | 0.203 KA relative to UGCAUGU |
| B16 | 0.0895 KA relative to UGCAUGU |

| Binder | binding signal |
| --- | --- |
| B17 | 0.0572 KA relative to UGCAUGU |
| B18 | 0.0759 KA relative to UGCAUGU |
| B19 | 0.0828 KA relative to UGCAUGU |
| B20 | 0.115 KA relative to UGCAUGU |
| B21 | 0.113 KA relative to UGCAUGU |
| B22 | 0.0825 KA relative to UGCAUGU |
| B23 | 0.12 KA relative to UGCAUGU |
| B24 | 0.0801 KA relative to UGCAUGU |
| B25 | 0.084 KA relative to UGCAUGU |
| B26 | 0.103 KA relative to UGCAUGU |
| B27 | 0.14 KA relative to UGCAUGU |
| B28 | 0.0767 KA relative to UGCAUGU |
| B29 | 0.11 KA relative to UGCAUGU |
| B30 | 0.172 KA relative to UGCAUGU |
| B31 | 0.0491 KA relative to UGCAUGU |
